# Data published in PubChem BioAssay AID686970 (National Center for Advancing Translational Sciences (NCATS), 2013).
# The campaign covered roughly 360,000 compounds. About 6,000 (1.7%) were called active. The inconclusive results got no clear call from the source; some entries with a clear call stand among them for comparison. The call rests on the fitted dose curve; in most records, active means well fitted cell-killing curve with a large enough effect; inconclusive means small, poorly fitted or top-dose-only effect, or effect the other way; inactive means flat fitted curve, though single readings scatter. No potency is given beside an inconclusive call; the fits are too rough.
# Assay: qHTS for induction of synthetic lethality in tumor cells producing 2HG: qHTS for the HT-1080-NT fibrosarcoma cell line;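 further: NT is the 2HG producing partner of a matched IDH1 knockdown line; nearly all actives have a fitted effect of over 55% in size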;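 on activity, negative = less viability: 0% = DMSO-treated cells and -100% = media-only wells without cells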
# Conditions: HT-1080-NT fibrosarcoma viability, CellTiter-Glo ATP luminescence, 48 h; activity, negative = less viability: at 46.1 µM (top of the series) unless noted
# Procedure, shortened: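 Luminescent CellTiter-Glo readout after 48 hours of compound exposure at 37 degrees C defined viability of HT-1080-NT cells. Activity was normalized to DMSO wells and cell-free media wells; concentration-response curves were fitted and assigned curve classes.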
# Potency means the concentration at half of the fitted maximal effect; tags describe the fitted curve by direction and shape.
Compound,Potency,"activity, negative = less viability"
COc1ccc(NC(=S)Nc2nc(CC(=O)Nc3ccccc3OC)cs2)cc1,active: 3.55 µM,–
Cc1ccc2c(c1)cc(CN(Cc1ccco1)S(=O)(=O)c1ccccc1)c1nnnn12,–,inactive: -1.31%
C=CCNC(=O)/C(C#N)=C/c1ccc(OS(=O)(=O)c2ccc(C)cc2)c(OC)c1,"inconclusive [cytotoxic, single point]",–
CC(C)CNS(=O)(=O)c1ccc(S(=O)(=O)N2CCC(N3CCCCC3)CC2)cc1,–,inactive: 16.3%
Cc1ccc(N(C(=O)Cn2nnc(-c3ccc(C)o3)n2)C(C(=O)NC2CCCC2)c2ccco2)cc1 (stereo unspecified),"inconclusive [cytotoxic, partial curve]",–
C#CCOCCOCCOCCNc1nc(N2CCN(C(=O)CCCCCCCCCCNC(=O)[C@@H](CCSC)n3cc(CCO)nn3)CC2)nc(N2CCN(C(=O)CCCCCCCCCCNC(=O)[C@@H]([C@H](C)O)n3cc(C)nn3)CC2)n1,–,inactive: -6.11%
Cc1cc(Br)ccc1NC(=S)N1CCOCC1,–,inactive: 6.21%
CCCCNC(=O)c1nc(C2CCN(S(=O)(=O)c3cccc(C(F)(F)F)c3)CC2)oc1-c1cccc(C(F)(F)F)c1,"inconclusive [rising, single point]",–
COc1ccc2nc(-c3ccccc3)[nH]c2c1,–,inactive: -13.7%
Cc1nc(N2CCOCC2)c2c(C)c(C(=O)Nc3ccc(C(F)(F)F)cc3)sc2n1,"inconclusive [cytotoxic, single point]",–
COc1cc(CNCCCN2CCOCC2)ccc1OCC(=O)Nc1cccc(C(F)(F)F)c1,"inconclusive [cytotoxic, single point]",–
CCc1cccc2c(C(=O)C(NC(C)CC)c3ccccc3)c[nH]c12 (stereo unspecified),active: 20.6 µM,–
COc1ccc(C(=O)c2ccccc2Cl)cc1OC,–,inactive: -7.46%
CCCCCCn1c(=O)n2n(c1=O)[C@@H]1CN(S(=O)(=O)c3ccc(C)cc3)C[C@]1(O)[C@@H](OC(=O)Nc1c(C)noc1C)C2,–,inactive: -1.23%
COc1cc(-c2nnc(-c3ccccc3)o2)cc(OC)c1OC,–,inactive: 9.69%
O=C(CCl)N(c1ccccc1)C1CCCCC1,active: 5.17 µM,–
CN(C/C=C/c1ccccc1)Cc1cccc2ccccc12,"inconclusive [cytotoxic, single point]",–
COc1ccc(N2C(=O)CC(Sc3ncn[nH]3)C2=O)c(OC)c1 (stereo unspecified),"inconclusive [cytotoxic, single point]",–
Cc1cc(N/N=C/c2ccc(O)c(C)c2O)nc(-c2ccccc2O)n1,"inconclusive [cytotoxic, single point]",–
O=C(N/N=C/c1ccc([N+](=O)[O-])s1)c1cccc(Br)c1,active: 11.6 µM,–
Cc1ccc(Cn2ccc(NC(=O)c3nn(C)cc3[N+](=O)[O-])n2)cc1,"inconclusive [cytotoxic, full curve]",–
COc1ccccc1NC(=O)C(=O)NCCC1CCCCN1S(=O)(=O)c1cccs1 (stereo unspecified),–,inactive: -21.7%
OC(COc1ccc(Cl)cc1Cl)CN1CCc2ccccc2C1 (stereo unspecified),"inconclusive [cytotoxic, single point]",–

Compound,Potency,"activity, negative = less viability"
Oc1ccc(C2C[C@H]3CC[C@@H]2C3)cc1O (stereo partly specified),"inconclusive [cytotoxic, single point]",–
NC(=O)CSc1nc2cc(Cl)ccc2c(=O)n1C1CCCCC1,"inconclusive [cytotoxic, partial curve, poor fit]",–
Cn1c(CSc2nc3ccc(Br)cc3[nH]2)nc2ccccc21,"inconclusive [cytotoxic, single point]",–
Cc1cc(NC(=O)c2cc(-c3cccs3)nc3ccccc23)no1,"inconclusive [cytotoxic, single point]",–
CC(=O)N1CCc2cc(C(=O)CN3CCN(c4cccc(Cl)c4)CC3)ccc21,–,inactive: 6.7%
Cc1ccccc1NC(=S)N=Nc1c(O)n(C)c2ccc(S(=O)(=O)N3CCOCC3)cc12,"inconclusive [cytotoxic, partial curve]",–
CCOC(=O)COc1cc(OCC(=O)OCC)c2c3c(c(=O)oc2c1)CCCC3,–,inactive: -4.12%
O=C(CSc1ccsc1[N+](=O)[O-])N1CCN(c2ccccc2)CC1,–,inactive: -3.3%
CCOC(=O)Cc1nnc(NC(=O)C(CC)Sc2nc(C)cc(=O)[nH]2)s1 (stereo unspecified),"inconclusive [rising, single point]",–
NNC(=S)NCc1ccccc1,"inconclusive [rising, single point]",–
Cc1ccc(C(=O)Nc2ccc(C(=O)N3CCCCC3)cc2)cc1,–,inactive: -0.703%
CS(=O)(=O)c1nc(-c2ccccc2)cc(C(F)(F)F)n1,active: 20.6 µM,–
COc1ccc(N2C(=S)N(C(=O)c3ccccc3)C(=Nc3ccccc3)C2=Nc2ccccc2)cc1,"inconclusive [cytotoxic, single point]",–
COc1ccc(C2CC(O)(C(C)(C)O)NO2)cc1 (stereo unspecified),"inconclusive [cytotoxic, single point]",–
Cc1cc(C(=O)CSc2nnc(-c3cccnc3)n2-c2ccccc2F)c(C)n1CC1CCCO1 (stereo unspecified),–,inactive: 0.891%
OC(CC1CC12c1ccccc1-c1ncccc12)(c1ccccc1)c1ccccc1 (stereo unspecified),–,inactive: -29.5%
CC(Oc1ccc(Br)cc1)C(=O)Nc1cc(Cl)ccc1N1CCN(C)CC1 (stereo unspecified),active: 13 µM,–
C=CCNC(=O)/C(C#N)=C\c1cc(Cl)c(OCC)c(OC)c1,"inconclusive [cytotoxic, single point]",–
O=C(N/N=C/C=C\c1cccc([N+](=O)[O-])c1)c1cccnc1,"inconclusive [cytotoxic, single point]",–
O=C(c1ccccc1)c1ccc(OCC(O)CNCc2cccc(Cl)c2)cc1 (stereo unspecified),"inconclusive [cytotoxic, single point]",–
Cc1nc(SCC(=O)Nc2sccc2C(N)=O)c2c(C)c(C)sc2n1,"inconclusive [cytotoxic, partial curve, poor fit]",–
COc1ccccc1NC(=O)c1sc2nc(N3CCOCC3)c3c(c2c1N)CCCC3,–,inactive: 16.4%
CC(=O)N1CCC2(CC1)C/C(=N\NC(=S)Nc1ccccc1F)c1cc(O)ccc1O2,"inconclusive [cytotoxic, single point]",–
